# Measured values reported in the antibiotic and cytotoxicity screens of Wong et al. (2023).
# The list shows a part of the results.
# Tests used:
# HSkMC = human skeletal muscle cells; assay: cytotoxicity call (relative viability < 0.9); conditions: 10 µM
# HepG2 = assay: cytotoxicity call (relative viability < 0.9); conditions: 10 µM
# S. aureus RN4220 = assay: growth inhibition call (relative growth <= 0.2); conditions: 50 µM
Structure (SMILES),cytotoxicity call (HSkMC),cytotoxicity call (HepG2),growth inhibition call (S. aureus RN4220)
CN1C(=O)c2cc(NC(=O)Cc3cccs3)ccc2OC[C@@H]2O[C@H](CC(=O)NCCc3ccncc3)CC[C@@H]21,inactive,inactive,inactive
C[C@H](NC(=O)N(C)C[C@H]1OCc2ccccc2-c2ccccc2C(=O)N([C@@H](C)CO)C[C@@H]1C)c1ccccc1,inactive,inactive,inactive
Nc1ncnc2c1ncn2[C@H]1CC[C@@H](CO)O1,inactive,inactive,inactive
C[C@@H]1CN([C@H](C)CO)S(=O)(=O)c2ccc(C#C[C@@H](C)O)cc2O[C@H]1CN(C)C(=O)C1CCCCC1,inactive,inactive,inactive
C[C@@H]1CN([C@@H](C)CO)C(=O)c2cc(NS(=O)(=O)c3cccs3)ccc2O[C@@H]1CN(C)S(=O)(=O)c1cccs1,inactive,inactive,inactive
COc1ccc(S(=O)(=O)N2C[C@@H](O)COC[C@@H]3O[C@H](CC(=O)NCCCN4CCOCC4)CC[C@H]32)cc1,inactive,inactive,inactive
C[C@H]1CCCCO[C@H](CN(C)Cc2ccccc2)[C@@H](C)CN([C@@H](C)CO)C(=O)c2cc(NC(=O)c3ccncc3)ccc2O1,inactive,inactive,inactive
CC(C)N1C[C@@H](C)[C@H](CN(C)Cc2ccc(Oc3ccccc3)cc2)Oc2c(C(=O)O)cccc2C1=O,inactive,inactive,inactive
CC(C)NC(=O)N(C)C[C@H]1Oc2ccc(NS(=O)(=O)c3cn(C)cn3)cc2CC(=O)N([C@H](C)CO)C[C@@H]1C,inactive,inactive,inactive
Cc1nc(-c2sc3ccc(Cl)cc3c2C)cs1,inactive,inactive,inactive
Cc1cc(OC(=O)c2c(C)cc(O)cc2O)cc(O)c1C(=O)O,inactive,inactive,inactive
CO[C@@H]1CN(C)C(=O)c2cc(NC(=O)CC(F)(F)F)ccc2OC[C@H](C)N(S(=O)(=O)c2cn(C)cn2)C[C@H]1C,inactive,inactive,inactive
O=C(C[C@@H]1CC[C@H]2[C@@H](COC[C@@H](O)CN2S(=O)(=O)c2cccc(F)c2)O1)NCc1ccc2c(c1)OCO2,inactive,inactive,inactive
Cc1nn(C)cc1NC(=O)C[C@H]1CC[C@H]2[C@H](COc3ccc(NC(=O)C4CCOCC4)cc3C(=O)N2C)O1,inactive,inactive,inactive
C[C@@H]1CCCCO[C@@H](CN(C)C(=O)Nc2ccc(C(F)(F)F)cc2)[C@@H](C)CN([C@H](C)CO)C(=O)c2cc(NC(=O)Nc3ccc(F)cc3)ccc2O1,inactive,inactive,inactive
C[C@@H]1CN([C@@H](C)CO)C(=O)CCCn2nncc2CO[C@@H]1CN(C)S(=O)(=O)c1ccccc1C#N,inactive,inactive,inactive
CC1(Cn2ccnn2)C(C(=O)O)N2C(=O)CC2S1(=O)=O (configuration not stated),inactive,inactive,active
C[C@H]1CCCCO[C@@H](CN(C)S(=O)(=O)c2ccc(F)cc2)[C@@H](C)CN([C@@H](C)CO)C(=O)c2cc(NC(=O)C3CCCCC3)ccc2O1,inactive,inactive,inactive
C[C@@H]1CN([C@H](C)CO)C(=O)c2cc(NC(=O)Nc3cccc4ccccc34)ccc2O[C@H]1CN(C)Cc1ccc(C(=O)Nc2ccccc2N)cc1,inactive,inactive,inactive
C[C@H]1CN([C@@H](C)CO)C(=O)c2c(c3ccccc3n2C)-c2ccccc2CO[C@H]1CN(C)Cc1ccc(Oc2ccccc2)cc1,inactive,inactive,inactive
C[C@@H]1CCCCO[C@@H](CN(C)C(=O)NC2CCCCC2)[C@H](C)CN([C@H](C)CO)C(=O)c2cc(NS(=O)(=O)c3ccccc3)ccc2O1,inactive,inactive,inactive
C[C@H](CO)N1C[C@H](C)[C@H](CN(C)S(=O)(=O)c2ccc(F)cc2)Oc2cc(C#Cc3ccncc3)ccc2S1(=O)=O,inactive,active,inactive
C[C@@H]1CN([C@@H](C)CO)C(=O)Cc2cc(NC(=O)Cc3ccccc3)ccc2O[C@@H]1CN(C)S(C)(=O)=O,inactive,inactive,inactive
COCC(=O)N(C)C[C@@H]1Oc2cc(C#CC(C)(C)O)ccc2S(=O)(=O)N([C@H](C)CO)C[C@H]1C,inactive,inactive,inactive
C[C@H]1CN([C@@H](C)CO)C(=O)c2cc(NC(=O)Cn3cnnn3)ccc2O[C@@H]1CN(C)S(=O)(=O)c1ccccc1,inactive,inactive,inactive
C[C@@H]1CN([C@@H](C)CO)C(=O)Cc2cc(NC(=O)Nc3ccc4c(c3)OCO4)ccc2O[C@H]1CN(C)Cc1ccc(C(F)(F)F)cc1,inactive,inactive,inactive
CC(=O)NCCCC[C@@H]1NC(=O)[C@H]2C[C@@H](C(=O)NCc3ccc(F)cc3)[C@@H](c3ccc(O)cc3)N2C1=O,inactive,inactive,inactive

Structure (SMILES),cytotoxicity call (HSkMC),cytotoxicity call (HepG2),growth inhibition call (S. aureus RN4220)
C[C@H](CO)N1C[C@H](C)[C@H](CN(C)C(=O)Nc2ccc(F)cc2)OCCCC[C@H](C)Oc2ccc(NS(=O)(=O)c3cccs3)cc2C1=O,inactive,inactive,inactive
C[C@H](CO)N1C[C@H](C)[C@H](CN(C)Cc2cccc(C(=O)O)c2)Oc2ncc(C#CCN(C)C)cc2C1=O,inactive,inactive,inactive
C[C@@H]1CCCCO[C@@H](CN(C)Cc2ccc3c(c2)OCO3)[C@H](C)CN([C@@H](C)CO)C(=O)c2cc(NC(=O)CCC(F)(F)F)ccc2O1,inactive,inactive,inactive
COc1nc(C)nc(Cl)c1NC1=NCCN1,inactive,inactive,inactive
C[C@@H]1CN([C@H](C)CO)C(=O)c2cc(NC(=O)Nc3ccc4c(c3)OCO4)ccc2O[C@H]1CN(C)S(C)(=O)=O,inactive,inactive,inactive
COc1ccc(NC(=O)Nc2ccc3c(c2)C(=O)N([C@@H](C)CO)C[C@H](C)[C@@H](CN(C)C(=O)Nc2cccc4ccccc24)OCCCC[C@@H](C)O3)cc1,inactive,inactive,inactive
C[C@H](CO)N1C[C@H](C)[C@@H](CN(C)S(=O)(=O)c2ccc(F)cc2)Oc2c(NC(=O)c3cnccn3)cccc2C1=O,inactive,inactive,inactive
C[C@H](CO)N1C[C@H](C)[C@@H](CN(C)C(=O)Nc2cccc3ccccc23)Oc2c(NC(=O)Nc3cccc4ccccc34)cccc2C1=O,inactive,inactive,inactive
CN1C(=O)c2cc(NC(=O)c3ccc(C(F)(F)F)cc3)ccc2OC[C@@H]2O[C@H](CC(=O)NC3Cc4ccccc4C3)CC[C@@H]21,inactive,inactive,inactive
C[C@@H]1CN([C@@H](C)CO)S(=O)(=O)c2ccc(C#CC3(O)CCCC3)cc2O[C@@H]1CN(C)C(=O)Nc1ccccc1,inactive,inactive,inactive
C[C@H]1CN([C@@H](C)CO)C(=O)Cc2cc(NC(=O)C3CCCCC3)ccc2O[C@@H]1CN(C)S(C)(=O)=O,inactive,inactive,inactive
C[C@@H]1CN([C@H](C)CO)C(=O)c2cccc(NC(=O)Nc3ccc(C(F)(F)F)cc3)c2O[C@H]1CN(C)Cc1ccc(C(=O)Nc2ccccc2N)cc1,inactive,inactive,inactive
C[C@@H]1CN([C@H](C)CO)C(=O)c2cc(C#Cc3ccccn3)cnc2O[C@@H]1CN(C)C(=O)c1cnccn1,inactive,inactive,inactive
O=C(C[C@@H]1C=C[C@@H](NC(=O)Nc2cc(F)ccc2F)[C@@H](CO)O1)NCCCN1CCOCC1,inactive,inactive,inactive
Cc1ccc(S(=O)(=O)Nc2ccc3c(c2)C(=O)N([C@@H](C)CO)C[C@H](C)[C@H](CN(C)Cc2ccc(C(F)(F)F)cc2)OCCCC[C@@H](C)O3)cc1,inactive,inactive,inactive
C[C@@H]1CN([C@@H](C)CO)C(=O)c2cc(NC(=O)Nc3cccc4ccccc34)ccc2O[C@@H]1CN(C)S(=O)(=O)c1ccc(F)cc1,inactive,inactive,inactive
O=C(c1cn(Cc2cncn2Cc2ccc(Br)cc2)cc1-c1cccc2ccccc12)N1CCOCC1,active,active,inactive
C[C@H]1COC(=O)[C@@H](Cc2ccc(F)cc2)CC=CC[C@@H](CC(=O)N(CCO)Cc2ccccc2)C(=O)N1,inactive,inactive,inactive
Nc1ncnc2c1c(I)cn2[C@H]1O[C@@H](CO)[C@@H](O)[C@@H]1O,inactive,active,inactive
COCC(=O)Nc1ccc2c(c1)C(=O)N(C)C[C@H](OC)[C@H](C)CN(Cc1cccc(F)c1)[C@H](C)CO2,inactive,inactive,inactive
COc1ccc2c3c(n(c2c1)C)[C@H](CO)N(CC1CCOCC1)C[C@]13CN(C1)C(=O)c1cccc(c1)F,inactive,inactive,inactive
NC(=O)[C@H]1[C@@H]2C(=O)O[C@@H](c3ccccc3)[C@@H](c3ccccc3)N2[C@@H](c2ccccc2OCCO)[C@]12C(=O)Nc1ccc(C#CC3=CCCCC3)cc12,active,active,inactive
C[C@H]1CN([C@@H](C)CO)C(=O)Cc2cc(NC(=O)C3CCCCC3)ccc2O[C@@H]1CN(C)Cc1ccc(Cl)c(Cl)c1,inactive,inactive,inactive
COc1ccc(S(=O)(=O)N(C)C[C@H]2Oc3ccc(NS(=O)(=O)c4cn(C)cn4)cc3C(=O)N([C@H](C)CO)C[C@H]2C)cc1,inactive,inactive,inactive
CC(=O)O[C@H]1CC[C@]2(C)[C@H]3CC[C@H]4[C@H]5CC(C)(C)CC[C@]5(C(=O)O)CC[C@@]4(C)[C@]3(C)CC[C@H]2C1(C)C,inactive,inactive,inactive
CC(=O)Nc1cccc(O)c1,inactive,inactive,inactive
C[C@@H]1CCCCO[C@H](CN(C)C(=O)CCC(F)(F)F)[C@@H](C)CN([C@@H](C)CO)C(=O)c2cc(NC(=O)CCCCCC(=O)Nc3ccccc3N)ccc2O1,inactive,inactive,inactive
